Source: the supplement of paper PMC8728848
The other results are listed elsewhere or left out.

Columns and labels:
Assay in all cases: glycan array binding signal (z-score within array); higher = stronger binding
Conditions in all cases: glycan notation: IUPAC condensed, linker removed
[1] = target: Neu5Ac(a2-6)Gal(b1-4)GlcNAc(b1-6)[Gal(b1-3)GlcNAc(b1-3)]Gal(b1-4)Glc
Outline: (§1)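 Glycan array data were curated from 3228 arrays in the Consortium for Functional Glycomics database and kept only where the protein sequence was available. Glycan names were converted to IUPAC-condensed notation, and columns mapping to the same glycan were averaged. The binding signal is a within-array Z-score, averaged across arrays of the same protein sequence at different concentrations or buffers and across linkers. Negative Z-scores can be read as non-binding.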

[2] = target: Neu5Ac(a2-6)Gal(b1-4)GlcNAc(b1-6)[Gal(b1-3)]GalNAc
Outline: as §1

[3] = target: Neu5Ac(a2-6)Gal(b1-4)GlcNAc6S
Outline: as §1

Neu5Ac(a2-6)GalNAc = target: Neu5Ac(a2-6)GalNAc
Outline: as §1

[4] = target: Neu5Ac(a2-6)GalNAc(b1-4)GlcNAc
Outline: as §1

[5] = target: Neu5Ac(a2-6)GalNAc(b1-4)GlcNAc6S
Outline: as §1

[6] = target: Neu5Ac(a2-6)GlcNAc(b1-4)GlcNAc
Outline: as §1

[7] = target: Neu5Ac(a2-6)GlcNAc(b1-4)GlcNAc(b1-4)GlcNAc
Outline: as §1

Neu5Ac(a2-8)Neu5Ac = target: Neu5Ac(a2-8)Neu5Ac
Outline: as §1

[8] = target: Neu5Ac(a2-8)Neu5Ac(a2-3)Gal(b1-3)GalNAc(b1-4)[Neu5Ac(a2-3)]Gal(b1-4)Glc
Outline: as §1

[9] = target: Neu5Ac(a2-8)Neu5Ac(a2-3)Gal(b1-3)GalNAc(b1-4)[Neu5Ac(a2-8)Neu5Ac(a2-3)]Gal(b1-4)Glc
Outline: as §1

[10] = target: Neu5Ac(a2-8)Neu5Ac(a2-3)Gal(b1-4)Glc
Outline: as §1

[11] = target: Neu5Ac(a2-8)Neu5Ac(a2-3)Gal(b1-4)GlcNAc
Outline: as §1

[12] = target: Neu5Ac(a2-8)Neu5Ac(a2-3)[Gal(b1-3)GalNAc(b1-4)]Gal(b1-4)Glc
Outline: as §1

[13] = target: Neu5Ac(a2-8)Neu5Ac(a2-3)[GalNAc(b1-4)]Gal(b1-4)Glc
Outline: as §1

[14] = target: Neu5Ac(a2-8)Neu5Ac(a2-8)Neu5Ac
Outline: as §1

[15] = target: Neu5Ac(a2-8)Neu5Ac(a2-8)Neu5Ac(a2-3)Gal(b1-4)Glc
Outline: as §1

[16] = target: Neu5Ac(a2-8)Neu5Ac(a2-8)Neu5Ac(a2-3)[Gal(b1-3)GalNAc(b1-4)]Gal(b1-4)Glc
Outline: as §1

[17] = target: Neu5Ac(a2-8)Neu5Ac(a2-8)Neu5Ac(a2-3)[GalNAc(b1-4)]Gal(b1-4)Glc
Outline: as §1

[18] = target: Neu5Ac(a2-8)Neu5Ac(a2-8)Neu5Ac(a2-8)Neu5Ac(a2-3)[GalNAc(b1-4)]Gal(b1-4)Glc
Outline: as §1

[19] = target: Neu5Ac(a2-8)Neu5Gc(a2-3)Gal(b1-4)GlcNAc
Outline: as §1

[20] = target: Neu5Ac(b2-6)Gal(b1-4)GlcNAc
Outline: as §1

Neu5Ac(b2-6)GalNAc = target: Neu5Ac(b2-6)GalNAc
Outline: as §1

[21] = target: Neu5Ac9Ac(a2-3)Gal(b1-3)GlcNAc
Outline: as §1

[22] = target: Neu5Ac9Ac(a2-3)Gal(b1-4)GlcNAc
Outline: as §1

[23] = target: Neu5Ac9Ac(a2-6)Gal(b1-4)GlcNAc
Outline: as §1

[24] = target: Neu5Gc(a2-3)Gal(b1-3)GlcNAc
Outline: as §1

[25] = target: Neu5Gc(a2-3)Gal(b1-3)[Fuc(a1-4)]GlcNAc
Outline: as §1

Neu5Gc(a2-3)Gal(b1-4)Glc = target: Neu5Gc(a2-3)Gal(b1-4)Glc
Outline: as §1

[26] = target: Neu5Gc(a2-3)Gal(b1-4)GlcNAc
Outline: as §1

[27] = target: Neu5Gc(a2-3)Gal(b1-4)GlcNAc(b1-3)Gal(b1-4)GlcNAc(b1-2)Man(a1-3)[Neu5Gc(a2-3)Gal(b1-4)GlcNAc(b1-3)Gal(b1-4)GlcNAc(b1-2)Man(a1-6)]Man(b1-4)GlcNAc(b1-4)GlcNAc
Outline: as §1

[28] = target: Neu5Gc(a2-3)Gal(b1-4)[Fuc(a1-3)]GlcNAc
Outline: as §1

[29] = target: Neu5Gc(a2-6)Gal(b1-4)GlcNAc
Outline: as §1

Neu5Gc(a2-6)GalNAc = target: Neu5Gc(a2-6)GalNAc
Outline: as §1

[30] = target: Neu5Gc(a2-8)Neu5Ac(a2-3)Gal(b1-4)GlcNAc
Outline: as §1

[31] = target: Neu5Gc(a2-8)Neu5Gc(a2-3)Gal(b1-4)GlcNAc
Outline: as §1

[32] = target: Neu5Gc(a2-8)Neu5Gc(a2-3)Gal(b1-4)GlcNAc(b1-3)Gal(b1-4)GlcNAc
Outline: as §1

[33] = target: Neu5Gc(a2-8)Neu5Gc(a2-6)Gal(b1-4)GlcNAc
Outline: as §1

B1: FliD (Clostridium difficile) (protein)
chain: MSSISPVRVTGLSGNFDMEGIIEASMIRDKEKVNKAKQDQQIVKWKQEIYRDIIKESKNLYDKYLNGDSPNSITNKKAYSATRITSSDESIIVAKGSAGAEKINYQFAVSQMAEPAKVTIKLNSSDPIVQQFPPNASGASSLNIGGVNIPISEQDTTSTIVSKINSLCADNDIRASYSEMTGELIISRKQTGSSSDIDLKVIGNDSLAGQIASDNGITFTTDASGTKSAVVYGKNLEADVTDDQGRVTHISKEQNSFKIDNIDYNVNSKGSAKLVSVTDTEEATKNMKAFVDDYNALMDKVYGLVTTKKSKDYPPLTDEQKDDMTTEEIEKWEKKAKEGILRNDDELRAFVEDIQSMFFGDADTIIALRKLGISEHENYNKKGQISFNADTFSKALIDDSDKVYKALAGYSSNYDDKGMFEKLKKIVFEYSGSSASKLTKKAGMENSSSASQNVYSKQIAEQERNISRLVEKMNDKEKRLYAKYSALESLLNKYSSQMNYFSQAQGN
[1]
  glycan array binding signal (z-score): 0.276
[2]
  glycan array binding signal (z-score): -0.225
[3]
  glycan array binding signal (z-score): -0.203
Neu5Ac(a2-6)GalNAc
  glycan array binding signal (z-score): -0.201
[4]
  glycan array binding signal (z-score): -0.25
[5]
  glycan array binding signal (z-score): 0.312
[6]
  glycan array binding signal (z-score): -0.175
[7]
  glycan array binding signal (z-score): -0.261
Neu5Ac(a2-8)Neu5Ac
  glycan array binding signal (z-score): -0.232
[8]
  glycan array binding signal (z-score): -0.267
[9]
  glycan array binding signal (z-score): -0.136
[10]
  glycan array binding signal (z-score): -0.235
[11]
  glycan array binding signal (z-score): -0.213
[12]
  glycan array binding signal (z-score): -0.122
[13]
  glycan array binding signal (z-score): 0.09
[14]
  glycan array binding signal (z-score): -0.239
[15]
  glycan array binding signal (z-score): -0.235
[16]
  glycan array binding signal (z-score): -0.136
[17]
  glycan array binding signal (z-score): -0.194
[18]
  glycan array binding signal (z-score): -0.21
[19]
  glycan array binding signal (z-score): -0.247
[20]
  glycan array binding signal (z-score): -0.242
Neu5Ac(b2-6)GalNAc
  glycan array binding signal (z-score): -0.259
[21]
  glycan array binding signal (z-score): 0.957
[22]
  glycan array binding signal (z-score): -0.108
[23]
  glycan array binding signal (z-score): -0.19
[24]
  glycan array binding signal (z-score): -0.166
[25]
  glycan array binding signal (z-score): -0.128
Neu5Gc(a2-3)Gal(b1-4)Glc
  glycan array binding signal (z-score): -0.194
[26]
  glycan array binding signal (z-score): -0.19
[27]
  glycan array binding signal (z-score): -0.067
[28]
  glycan array binding signal (z-score): -0.112
[29]
  glycan array binding signal (z-score): -0.077
Neu5Gc(a2-6)GalNAc
  glycan array binding signal (z-score): -0.104
[30]
  glycan array binding signal (z-score): -0.273
[31]
  glycan array binding signal (z-score): -0.191
[32]
  glycan array binding signal (z-score): 0.093
[33]
  glycan array binding signal (z-score): -0.194
